# Read counts are not given, so values of variants with three or more changes are uncertain.
# B1: LINE1-mini (parent)
# chain: GGCAGAGCUCAACACAGCGUGGCAAAGUGGCUGUGGCUAGACUGCC
# Variants of: B1
# Assay: self-cleavage, relative activity (ratio to wild type); higher = more cleavage; in vitro, sequencing; the parent is a self-cleaving ribozyme
row,Variant,self-cleavage
1,GGCAGAGGGCAACACAACGUGGCAAAGUGACGGUGGUUAGACUGCC [C8G U9G G17A G30A U32G C37U],0.02
2,GGCACAGCUCAACACAGCGUGGCAAUGUGGCUGUGGCUAUACUGCC [G5C A26U G40U],0.04
3,GACAGAGCUCAACACAGGGUGGCAAAGUGACUGUGGCUAGACUCCC [G2A C18G G30A G44C],1.34
4,GGUAGAGCUCAACUCAGCGUGGCAAAGUAGCUGUGGCUAGACUGCC [C3U A14U G29A],0.16
5,GGCAGAGCUCAACACAGCGUGGCGCAGUGGAUGUGGCUAGACAGCC [A24G A25C C31A U43A],0.09
6,GGCAGAGCUCAACUGAGCGUGGCAAACUGGCUUUGGCUAGACUGCC [A14U C15G G27C G33U],0.04
7,GGCAGAGGUCAACACAGCGUGACAAAGUGGCUGUGGCUAAACUGUC [C8G G22A G40A C45U],0.04
8,GGCAGAGCUCAACGCAACGUGGCAAAGUGGAUGUGGCUAAACUGCC [A14G G17A C31A G40A],0
9,GGCAGUGCUCAACACAGCGUGGCAUAGUGGCUCUGGCUAGACUGCC [A6U A25U G33C],0.04
10,GGCAUAGCUCAACACAACGUGGCAAAGUGGCUGUGGCUAGUCUGCA [G5U G17A A41U C46A],0.03
11,GUCAGAGCUCAACACAGCAUGGCAAAGUGGCUGUGGCUAGACUUCC [G2U G19A G44U],0.03
12,GGCAAAGCUCGACACAGCGUGGCAAAGUGGCUAUGGCUAGACUGCC [G5A A11G G33A],0.02
13,GAUAGUGCUCAACACAGCGUGGCAAAGUGGCUGUGGCCAGACUGCC [G2A C3U A6U U38C],0.45
14,GGCAGCGCUCAACAAAGCGUGGCAAAGUGGCUGUGGCUUGACUUCC [A6C C15A A39U G44U],0.05
15,GGCAGAGCUCAACACAUCGUGGCAAAGUGCCUGUGGCUAUACUGCC [G17U G30C G40U],0.18
16,GGCAGAGCUCGACACAGCGUGGCAAAGUGGUUGUGGCUAGACUGGC [A11G C31U C45G],0.04
17,GGCAGAGCUCCACACUGCGUGGCAAAGUGUCUGUGGCUAGACUGCC [A11C A16U G30U],0.01
18,GGCAGAGCACAACACUGCGUGGAAGAGUGGCUGUGGCUAGACUGAC [U9A A16U C23A A25G C45A],0.05
19,GGGAGAGCUCAACAGAGCGUGGCAAAGGGGCUGAGGGAAGAAUGCC [C3G C15G U28G U34A C37G U38A C42A],0.02

row,Variant,self-cleavage
1,GGCAGAGCUCAACACAGCGUGGCAAAGUGGAUGUCGCUUGACUGCC [C31A G35C A39U],0.02
2,GGCCGAUCUCAACACACCGUGGCAAAUUGGCGGUGGCUGGACUGCC [A4C G7U G17C G27U U32G A39G],0.09
3,GGCAGAGGUCAACACAGCGUGGCAAAGUGGCUGUGGGUGGACUGCC [C8G C37G A39G],0.07
4,GGAAGAGUUCAACACAGCGUGGCAAAGAGGCUGUGGCUAGAGUGUC [C3A C8U U28A C42G C45U],0.08
5,GGCAGAGCUCAACACGGCGAGGCAAAGUGGCUGUGACUAGACUGCC [A16G U20A G36A],0.03
6,GGCAGAGCUCAACACACCGUGGGAAAGUGGCUGUGGCUAAACUGCC [G17C C23G G40A],0
7,GUCAGAGCUCAACACAGCGUGGCAAAGUGGCUGUUGCUAGACCGCC [G2U G35U U43C],0.01
8,GGCAGAGCUCGACACAUCGUGGCAAAGUGGCUGGGUCUAGACUGCC [A11G G17U U34G G36U],0.02
9,GGCAGAACUCAACUCAGCGUGGCAAAGUCGCUGUGGCUAGACUGCC [G7A A14U G29C],0.3
10,GGCAGAGCACAACACAGCGUGGCAAUGUGCCAGUGGCUAAACUGCA [U9A A26U G30C U32A G40A C46A],0.36
11,GGCAGAGCUCAAAACAGCGUGGCAUAGUGUCUGUGGCUAGUCUGCC [C13A A25U G30U A41U],0.08
12,GGCAGAGCUCAACACGCCCUGGCAAAUUGGCUGUGGCUAGACUGCC [A16G G17C G19C G27U],0.14
13,GGCAGAGCUCUACACAGCGUGGCGAAGUGGCUGUGGCUACACUGCC [A11U A24G G40C],0.04
14,AGCAGAACUCAACACUGCGUGGAAAAGUGGCUGGGGCUAGUCUGCC [G1A G7A A16U C23A U34G A41U],0.37
15,UGCAGAGCUCAUCACAGCGUGGCCAAGUGGCUGUGGCUAAACUGCC [G1U A12U A24C G40A],0
16,GGCAGAGCUCAACACAUCGUGGCAAAGAGGCUGUGCCUAGACUGCC [G17U U28A G36C],0.06
17,GGCCGAGCUUAACAGAGCGUGGCAAAGUGGCAGUGGCUAGUCUGCC [A4C C10U C15G U32A A41U],0
18,GGCAAAACUCAACACAGCGUGGCACAGUGGUUGUGGCUAGACUGCC [G5A G7A A25C C31U],0.16
19,AGGAAAGCUCAAGACAGCGUGGCAAUCUGGCUGUGGCUAGACUGCC [G1A C3G G5A C13G A26U G27C],1.34

row,Variant,self-cleavage
1,GCCCGAGCUGAACACAGCGUGGCAAAGUGGCUGUGGCUAGACUGGC [G2C A4C C10G C45G],0.03
2,GGCAGAGCUCAACACAGCGUUGCAAAGUGGCUUUGACUAGACUGCC [G21U G33U G36A],0.05
3,GGCAGAGCUCAACAUAGCGUCCCAAAGUGACUGUGGCUACACUGCC [C15U G21C G22C G30A G40C],0.06
4,GGCAGUGAUCAACACAGUGUGGCAAAGUGGCUGUGGCUAGACUGUC [A6U C8A C18U C45U],0.12
5,GGCAGAGCUCCUCGCAGCGUGGGAAGAUGGCUGUGGCUAGACUGCC [A11C A12U A14G C23G A26G G27A],0.01
6,GGCAGAGCUCAACACAGCGUGGCUAAGUGGCUGAGGUCAGACUGCA [A24U U34A C37U U38C C46A],0.03
7,GGCAGAGCUCAACACCGCGUGGCAAAGUGCCGGUGGUUAGACUGCC [A16C G30C U32G C37U],0.03
8,GGCGGAGCUCAACACAGCCUGACAAAGUGGCUGUGGCUAGACUGCC [A4G G19C G22A],0.12
9,GGCAGAGCUAAAUACAGCGUGGCAAAGUUGCUGUGGCUAGACUGCC [C10A C13U G29U],0.01
10,UGCAGAGGUCAACACAGCGUGGCAAAGUGGAUGUGGCUAGACUGCC [G1U C8G C31A],0.07
11,GGCAGAGCUCAACACAUCCCGACAAAGUGGCUGUGGCUAGACUGCC [G17U G19C U20C G22A],0.46
12,GGCAGAGCUCGACAUAGCGUGGCAAAGUGGCUGUGGCUAGACCGCC [A11G C15U U43C],0.01
13,GGCAGAGCGCCACACAGCGUGGCAAAGAGGCUGUGGCUAGACUGCC [U9G A11C U28A],0.01
14,GUCAGAGCUCAACACAGUGUGGCAAAGUGGCUGUGGCUAGAGUGCC [G2U C18U C42G],0.05
15,GGCAGAACUCAACACAGCGUGGCAACGUGGCUAUGGCUAGACUGCC [G7A A26C G33A],0.09
16,GGCAGAGCUCAACACAGCGUGGCUAAGUGUCUGUGGCUAGACUCUC [A24U G30U G44C C45U],0.05
17,GGCAGAGCGCAUCACAGCGUGGCAAAGUAGCUGUGGCUAGACUGCC [U9G A12U G29A],0.04
18,GGCAGAGCUGAACACAGCGUAGCAAAGUGGCAGAGGCUAGACUGCC [C10G G21A U32A U34A],0.02
